Source: the supplement of paper PMC7125110
± gives the standard error. This sample is rich in variants without activity.

B1: glmS ribozyme (parent)
chain: AUAAAAGCGCCAGAACUACAGAAAUGUAGUUGACGAGGAGGAGGUUUAUCGAAUUUUCGGCGGAUGCCUCCAAA

What was measured:
Details in all cases: with glucosamine-6-phosphate
[1] = variants of: B1; assay: self-cleavage kobs at 640 uM GlcN6P; higher = faster cleavage; RNA array
Summary of the method: (§1)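 Ribozyme variants carrying barcodes were transcribed in situ on sequenced MiSeq chips by E. coli RNA polymerase and tracked at 37 °C with a hybridised Cy3 probe. They were exposed to 40 μM to 10 mM glucosamine-6-phosphate in HEPES/KCl/Mg(OAc)2 buffer. kobs came from exponential decay fits of normalised per-tile medians, and kcat and KM from weighted Michaelis–Menten fits.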

[2] = variants of: B1; assay: self-cleavage kobs at 160 uM GlcN6P; higher = faster cleavage; RNA array
Summary of the method: as §1

[3] = variants of: B1; assay: self-cleavage kobs at 2500 uM GlcN6P; higher = faster cleavage; RNA array
Summary of the method: as §1

[4] = variants of: B1; assay: self-cleavage kobs at 10000 uM GlcN6P; higher = faster cleavage; RNA array
Summary of the method: as §1

| Variant | self-cleavage kobs at 640 uM GlcN6P [1] [s⁻¹] | self-cleavage kobs at 160 uM GlcN6P [2] [s⁻¹] | self-cleavage kobs at 2500 uM GlcN6P [3] [s⁻¹] | self-cleavage kobs at 10000 uM GlcN6P [4] [s⁻¹] |
| --- | --- | --- | --- | --- |
| AUAAAAGGGCCAGUACUACAGAAAUGUAGUUGACGAGGAGGAGGUUUAUCGAAUUUUCGGCGGAUUCCUCCAAA [C8G A14U G66U] | < 1e-05 | < 1e-05 |  |  |
| AUAAAAGGGCCAGACCUACAGAAAUGUAGUGGACGAGGAGGAGGUUUAUCGAAUUUUCGGCGGAUGCCUCCAAA [C8G A15C U31G] | < 1e-05 |  |  |  |
| AUAAAAGGGCCAGAACUACAGAAAUGUAGUUGACGGGGAGGAGGUUUAUCGAAUUUUCGUCGGAUGCCUCCAAA [C8G A36G G60U] | < 1e-05 |  |  |  |
| AUAAAAGGGCCAGAACUACAGAAAUGUAGUUGACGAGGUGGAGGUUUAUCGAAUUUUCGGCGGAUACCUCUAAA [C8G A39U G66A C71U] | < 1e-05 |  | < 1e-05 |  |
| AUAAAAGGGCCAGAACUACAGAAAUGUAGUUGACGAGGAGGCGGUUAAUCGAAUUUUCGGCGGAUGCCUCCAAA [C8G A42C U47A] | < 1e-05 |  | < 1e-05 |  |
| AUAAAAGGGCCAGAACUACAGAAAUGUAGUUGACGAGGAGGAGGUUUUUCGAAUUUUCGGCGCAUGCCUCAAAA [C8G A48U G63C C71A] | < 1e-05 |  |  |  |
| AUAAAAGGGCCAGAAAUACAGAAAUGUAGUUGACGAGGAGGAGGUUUAUCGAAUUUUCGGCGGAUGCCUCCAAA [C8G C16A] | < 1e-05 | < 1e-05 | < 1e-05 | < 1e-05 |
| AUAAAAGGGCCAGAACUACAGAAAUGUAGUUGACGAGGAGGAGGUUUAUGGUAUUUUCGGCGGAUGCCUCCAAA [C8G C50G A52U] | < 1e-05 |  |  |  |
| AUAAAAGGGCCAGAACUACAGAAAUGUAGUUGACGAGGAGGAGGUUUAUCGAAUUUUAGGCGGAGGCCUCAAAA [C8G C58A U65G C71A] | < 1e-05 |  |  |  |
| AUAAAAGGGCCAGAACUACAGAAAUGUAGUUGACGAGGAGGAGGUUUAUCGAAUUUUUCGUGGAUGGCUCCAAA [C8G C58U G59C C61U C67G] | < 1e-05 |  | < 1e-05 |  |
| AUAAAAGGGCCAGAACUACAGAAAUGUAGUUAACGAGGAGGAGGUCUAUCGAUUUUUCGGCGCAUGCCUCCAAA [C8G G32A U46C A53U G63C] | < 1e-05 |  | < 1e-05 |  |
| AUAAAAGGGCCAGAACUACAGAAAUGUAGUUUACGAGGAGGAGGUUUAUCGAAUUUUUGGCGGAUGCCUCCAAA [C8G G32U C58U] | < 1e-05 | < 1e-05 |  |  |
| AUAAAAGGGCCAGAACUACAGAAAUGUAGUUUACGAGGAGGAGCUUUAUCGAAUUUUCGGCGGAUGCCUCCAAA [C8G G32U G44C] | < 1e-05 |  |  |  |
| AUAAAAGGGCCAGAACUACAGAAAUGUAGUUGACAAGGAGGAGCUUUAUCGAAUUUUCGGCGGAUGCCUCCAAA [C8G G35A G44C] | < 1e-05 |  |  | < 1e-05 |
| AUAAAAGGGCCAGAACUACAGAAAUGUAGUUGACGAGAAGGAGGUUUAUCGAAUUUUGGGCGGAUGGCUCCAAA [C8G G38A C58G C67G] | 0.000538 ± 0.00013 | 0.000186 ± 5e-05 | 0.000435 ± 0.00014 |  |
| AUAAAAGGGCCAGAACUACAGAAAUGUAGUUGACGAGCAGGAGGUUUAUCGAAUUUUCGGCCGUUGCCUCCAAA [C8G G38C G62C A64U] | < 1e-05 |  |  |  |
| AUAAAAGGGCCAGAACUACAGAAAUGUAGUUGACGAGUAGAAGGUGUAUCGAAUUUUCAGCGGAUGCCUCCAAA [C8G G38U G41A U46G G59A] | < 1e-05 |  |  |  |
| AUAAAAGGGCCAGAACUACAGAAAUGUAGUUGACGAGGAUGAGGUUUAUCGUAUUUUCGGCGGAUGCCUCCAAA [C8G G40U A52U] | < 1e-05 | < 1e-05 |  |  |
| AUAAAAGGGCCAGAACUACAGAAAUGUAGUUGACGAGGAGCAGGUUUAUCGAAUUUUCGGCGGAUGGCUCCAAA [C8G G41C C67G] | < 1e-05 |  | < 1e-05 |  |
| AUAAAAGGGCCAGAACUACAGAAAUGUAGUUGACGAGGAGGAGAUUUAUCGAAUUAUCGGCGGAUGCCUCCAAA [C8G G44A U56A] | < 1e-05 |  | < 1e-05 | < 1e-05 |

| Variant | self-cleavage kobs at 640 uM GlcN6P [1] [s⁻¹] | self-cleavage kobs at 160 uM GlcN6P [2] [s⁻¹] | self-cleavage kobs at 2500 uM GlcN6P [3] [s⁻¹] | self-cleavage kobs at 10000 uM GlcN6P [4] [s⁻¹] |
| --- | --- | --- | --- | --- |
| AUAAAAGGGCCAGAACUACAGAAAUGUAGUUGACGAGGAGGAGGUUUAUCGAAUUUUCGGCGCAUGCCUACAAA [C8G G63C C70A] | < 1e-05 |  |  |  |
| AUAAAAGGGCCAGAACUACAGAAAUGUAGUUGACGAGGAGGAGGUUUAUCGAAUUUCCGGCUGAUGCCUCCAAA [C8G U57C G62U] | < 1e-05 | < 1e-05 | < 1e-05 |  |
| AUAAAAGUGCCAGUACUACAGAAAUGUAGUUCACGAGGAGGAGGUUUAUCGAAUUUUCGGCGGAUGCCUCCAAA [C8U A14U G32C] | < 1e-05 |  | < 1e-05 |  |
| AUAAAAGUGCCAGAUCUACAGAAAUGUAGUUGACGAGGAGGAGGUUUAUCGAAUUUUCGUCCGAUGCGUCCAAA [C8U A15U G60U G62C C68G] | < 1e-05 |  |  |  |
| AUAAAAGUGCCAGAACUACAGAAAUGUAGUUGCCGUGGAGGAGGUUUAUCGAUUUUUCGGCGGAUGCCUCCAAA [C8U A33C A36U A53U] | < 1e-05 |  | < 1e-05 |  |
| AUAAAAGUGCCAGAACUACAGAAAUGUAGUUGACGAGGAGGCGGUUUAUCGAAUUUUCGGCUGAUGCCUCGAAA [C8U A42C G62U C71G] | < 1e-05 |  | < 1e-05 |  |
| AUAAAAGUGCCAGAACUACAGAAAUGUAGUUGACGAGGAGGCGGUUUAUCGAAUUUUCGGCGGAGGCCUCCAAA [C8U A42C U65G] | < 1e-05 |  |  | < 1e-05 |
| AUAAAAGUGCCAGAACUACAGAAAUGUAGUUGACGAGGAGGUGGUUUAUCGAAUUUUCGGCGGCUGCCCCCAAA [C8U A42U A64C U69C] | < 1e-05 | < 1e-05 |  |  |
| AUAAAAGUGCCAGAACUACAGAAAUGUAGUUGACGAGGAGGAGGUUUAUCGAGAUUUCGGCGGAUGCCUCCAAA [C8U A53G U54A] | < 1e-05 |  |  |  |
| AUAAAAGUGCCAGAACUACAGAAAUGUAGUUGACGAGGAGGAGGUUUAUCGAAUUUUCGGCGGUUGUCUCCAAA [C8U A64U C67U] | < 1e-05 |  | < 1e-05 | < 1e-05 |
| AUAAAAGUGUCAGAAUUACAGAAAUGUAGUUGACGAGGAGGAUGUUUAUCGAAUUUUCGGCGGAUGCCUCCAAA [C8U C10U C16U G43U] | < 1e-05 | < 1e-05 | < 1e-05 |  |
| AUAAAAGUGCAACAACUACAGAAAUGUAGUUGACGAGGAGGAGGUUUAUCAAAUUUUCCGCGGAUGCCUCCAAA [C8U C11A G13C G51A G59C] | < 1e-05 |  | < 1e-05 |  |
| AUAAAAGUGCUAGAACUACAGAAAUGUAUUUGACGAGGAGGGGGUUUAUCGAAUUUUCGCCGGAUGCCUCCAAA [C8U C11U G29U A42G G60C] | < 1e-05 |  | < 1e-05 |  |
| AUAAAAGUGCCAGAACUACAGAAAUGUAGUUGAGGAGGAGAAGGUUUAUCGAAUUUUCGGCGGAUGCCUCCAAA [C8U C34G G41A] | < 1e-05 | < 1e-05 |  |  |
| AUAAAAGUGCCAGAACUACAGAAAUGUAGUUGACGAGGAGGAGGUUUAUCGAAUUUUAGGCGGACGCCUCCAAA [C8U C58A U65C] | < 1e-05 |  |  |  |
| AUAAAAGUCCCAGAAGUACAGAAAUGUAGUUGACGAGGAGGAGGUUUAUCGAAUUUUCGACGGAUGCCUCCAAA [C8U G9C C16G G60A] | < 1e-05 |  |  |  |
| AUAAAAGUUCCAGAACUACAGAAAUGUAGUUGACGAGGAGGUGGUUUAUCGAAUUUUCGGCGGAUGCCUCCAAA [C8U G9U A42U] | < 1e-05 |  | < 1e-05 |  |
| AUAAAAGUGCCAUAACUACAGAAAUGUAGUUGACGAGGAGGAGGUUUAUCGAAUUUUAGGCGGAUGCCUCCAAA [C8U G13U C58A] | < 1e-05 |  | < 1e-05 |  |
| AUAAAAGUGCCAGAACUACAGAAAUGUAGUUCACGAGGAUGAGGUUUAUCGCAUUUUCGGCGGAUGCUUCCAAA [C8U G32C G40U A52C C68U] | < 1e-05 |  | < 1e-05 |  |
| AUAAAAGUGCCAGAACUACAGAAAUGUAGUUGACGAGGAGGAGGUUUAUCGAAUUUUCCGCGGAUGGCUCCAAA [C8U G59C C67G] | < 1e-05 | < 1e-05 | < 1e-05 |  |
